Results on 114 compounds are retold here after PubChem BioAssay AID488969 (Vanderbilt High Throughput Screening Facility, 2010).

Over roughly 110,000 compounds, “z-score” has its median near -0.1; the highest 2% begin near 2. Some of the results follow. Activity calls are given as the source filed them.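 Rule for the calls: active = z-score in the third read window above 3 or below -3; inactive = the rest.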

For the test, the target named is Metabotropic glutamate receptor 8 (Rattus norvegicus) (UniProt P70579). Description: rat mGluR8 modulators via GIRK flux, primary screen, cell-based, thallium flux, HTS (AID 488969). As to conditions: HEK293 rat mGluR8, GIRK (G protein-gated inwardly rectifying potassium channel) thallium flux, FluoZin2; at 10 µM; stronger effect = higher value; submaximal glutamate (EC20) added with thallium.
UniProt P70579, sequence (P70579 whole entry, looked up): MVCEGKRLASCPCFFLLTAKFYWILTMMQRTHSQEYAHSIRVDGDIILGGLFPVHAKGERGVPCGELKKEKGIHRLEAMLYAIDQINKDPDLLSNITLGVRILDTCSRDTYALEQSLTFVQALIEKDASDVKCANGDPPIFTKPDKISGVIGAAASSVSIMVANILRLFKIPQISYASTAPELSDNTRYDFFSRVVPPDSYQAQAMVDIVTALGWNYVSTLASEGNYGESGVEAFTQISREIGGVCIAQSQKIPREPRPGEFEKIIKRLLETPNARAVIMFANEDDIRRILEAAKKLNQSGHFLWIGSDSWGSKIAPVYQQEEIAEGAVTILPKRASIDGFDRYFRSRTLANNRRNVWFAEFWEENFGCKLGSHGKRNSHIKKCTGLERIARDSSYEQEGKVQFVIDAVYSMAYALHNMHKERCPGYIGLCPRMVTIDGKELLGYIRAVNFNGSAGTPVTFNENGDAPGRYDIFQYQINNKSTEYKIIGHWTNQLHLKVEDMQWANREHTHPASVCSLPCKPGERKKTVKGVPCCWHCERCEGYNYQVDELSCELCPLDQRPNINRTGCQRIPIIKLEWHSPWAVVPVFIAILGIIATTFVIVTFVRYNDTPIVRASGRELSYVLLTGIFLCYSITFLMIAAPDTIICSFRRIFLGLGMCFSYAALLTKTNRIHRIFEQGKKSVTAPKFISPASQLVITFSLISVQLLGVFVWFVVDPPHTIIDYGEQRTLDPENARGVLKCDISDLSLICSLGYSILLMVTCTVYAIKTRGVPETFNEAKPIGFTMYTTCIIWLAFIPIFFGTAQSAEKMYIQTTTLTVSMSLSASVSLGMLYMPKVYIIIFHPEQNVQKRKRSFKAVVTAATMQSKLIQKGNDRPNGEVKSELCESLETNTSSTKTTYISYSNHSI
In turn, `CCCc1cc(C(=O)Nc2cc(C)nn2-c2ccccc2)no1` returned a z-score of -0.702.

In turn, `CC(C)C1Oc2ccccc2N(CC(=O)N(Cc2ccccn2)C2CC2)C1=O` (centres undefined) had a z-score of 0.521.

Consider `O=C(Cn1nnc(-c2ccc(CN3CCOCC3)cc2)n1)NC1CCCCC1`, for which the z-score was -0.106.

In turn, `COc1ccc(CCNC(=O)C2(C)CCC(=O)N2Cc2ccc3c(c2)OCO3)cc1OC` (centres undefined) showed a z-score of 0.595.

Turning to `CC1(C)CNC(=O)C=C(c2ccccc2)C1`, the z-score was -0.176.

`CC1CN(CC(O)COC(c2ccc(Cl)cc2)c2ccc(Cl)cc2)CC(C)O1` (centres undefined): the z-score is -0.138.

In turn, `CCc1c(C(=O)Nc2ccncc2)csc1C` displayed a z-score of 0.523.

Consider `O=C(CSc1ncn[nH]1)N1N=C2/C(=C/c3ccccc3)CCCC2C1c1ccccc1` (centres undefined), for which the z-score was found to be 0.219.

Compound `Cc1ccccc1-n1c(SCc2csc(Nc3ccccc3)n2)nnc1-c1cccnc1` yielded a z-score of -0.897.

In turn, `COc1ccc(/C=N/Nc2nc(Nc3ccccc3)nc(N3CCCCC3)n2)c(OC)c1` displayed a z-score of 0.74.

`COc1cc(OC)nc(N/N=C(\c2ccccc2)c2ccncc2)n1` came in with a z-score of -0.317.

In the case of `O=C(Nc1ccccc1)c1ccn[nH]1`, the z-score came to 0.112.

For `O=S(=O)(c1ccc(F)cc1)N1CCC(N2CCCCCC2)CC1`, the z-score is -0.132.

`COc1cc(C)c(Cl)cc1S(=O)(=O)NCCCN1CCOCC1` yielded a z-score of -0.146.

`Nc1ccc(Sc2ccccc2CC(=O)O)cc1` gave a z-score of 1.21.

Regarding `CCOC(=O)c1oc2ccccc2c1NC(=O)COc1ccc(F)cc1`, the z-score is -0.456.

As for `CC(=O)NCC(=O)OCC(=O)c1ccc(Br)cc1`, the z-score was -0.187.

`COc1ccc(NC(=O)COC(=O)c2ccc(OCc3ccc(Cl)cc3Cl)c(OC)c2)c(OC)c1` returned a z-score of -0.225.

`CCOc1c2ccc(C(=O)NCc3ccc4c(c3)OCO4)cc2nn1CCOC` gave a z-score of -0.276.

Regarding `Cc1cc2c(c(=O)n1CCN(C)C)C(c1ccc(Cl)cc1)C(C#N)=C(N)O2` (centres undefined), the z-score is -1.32.

Compound `CCOC(=O)C1=C(C)NC(=O)NC1c1cccnc1` (centres undefined) displayed a z-score of 0.62.

As for `Cc1csc(NC(=O)COc2ccc3c(C)cc(=O)oc3c2)n1`, the z-score was -0.415.

Turning to `CCC/C=N/NC(=O)c1cc(-c2ccccc2)nc2ccccc12`, the z-score is -0.317.

In the case of `Cc1ccccc1NC(=O)c1sc2nc3c(c(-c4ccco4)c2c1N)CCC3`, the z-score was -0.383.

Consider `Cc1cc(C)cc(NC2=NCC(=O)N2Cc2ccccc2)c1`, for which the z-score was -0.354.

In turn, `CCCCNC(=O)CCCn1c(=S)[nH]c2cc3c(cc2c1=O)OCO3` yielded a z-score of -0.47.

Take `CCC(Sc1nnnn1-c1ccccc1)C(=O)NC(C)c1ccccc1` (centres undefined): the z-score worked out at 0.324.

Compound `CC(C)=CCCC1=CCC2C(=O)NNC(=O)C2C1` (centres undefined) gave a z-score of -0.0401.

`Clc1cccc(CSc2nccn2-c2ccccc2)c1` came in with a z-score of 0.209.

In turn, `Cc1ccnc(NS(=O)(=O)c2ccc(NC(=O)C34CC5CC(C)(CC(C)(C5)C3)C4)cc2)n1` registered a z-score of -0.414.

`CCCCC(=O)NCCc1cc2ccc(OC)cc2[nH]c1=O` showed a z-score of 0.0337.

On to `O=C1CN(C(=O)c2ccc(Br)o2)C(c2ccccc2)c2cc(F)ccc2N1` (centres undefined), for which the z-score was -0.455.

As to `COc1ccc(-c2nnc(-c3cc(OC)c(OC)c(OC)c3)o2)cc1OC`, the z-score stood at 0.337.

`COC(=O)Nc1c(-c2ccccc2)nc2ccccn12` came in with a z-score of -0.126.

`Cc1noc(NS(=O)(=O)c2ccc(NC(=O)c3ccoc3C)cc2)c1C` displayed a z-score of 0.00366.

Take `CC(NC(=O)CSc1nnc(-c2cc3cc(Cl)ccc3o2)n1C)c1ccccc1` (centres undefined): the z-score is -0.119.

`CCCCNC(=S)Nc1ccc2nc3n(c(=O)c2c1)CCCCC3`: the z-score is -0.743.

In turn, `C=CCSc1n[nH]c(-c2ccc(OC)cc2)n1` came in with a z-score of -0.102.

The compound `Cc1ccc(-c2nnn(CC(=O)NC3CCN(Cc4ccccc4)CC3)n2)cc1` yielded a z-score of 0.381.

Consider `CC(Oc1ccc(Cl)cc1Cl)C(=O)NCCC1=CCCCC1` (centres undefined), for which the z-score was -0.115.

Take `Cc1ccc(C)c(OCC(=O)Nn2c(C)nc3ccccc3c2=O)c1`: the z-score is -0.556.

Turning to `O=C(COc1nnnc2ccccc12)N1CCCc2ccccc21`, the z-score was -0.0964.

`N#Cc1c(N)n[nH]c1-c1cc2c([nH]1)CCCC2` registered a z-score of -0.142.

`O=C(NCCCN1CCOCC1)c1ccccc1NS(=O)(=O)c1cc([N+](=O)[O-])ccc1Cl` yielded a z-score of 0.0883.

Take `Cc1cc(NCCO)nc(-n2nc(C)cc2C)n1`: the z-score is -0.0242.

The compound `COc1ccccc1NC(=O)CSc1nc2nc(C)cc(C)c2c(=O)[nH]1` yielded a z-score of 0.244.

For the compound `Oc1ccc(O)c(-c2cnns2)c1`, the z-score is 0.00638.

Compound `CCCOc1ccc(-c2nc(C#N)c(N3CCC(C(N)=O)CC3)o2)cc1` registered a z-score of -0.0387.

Regarding `COc1cccc(Nc2nc(N)nc(-c3oc4ccccc4c3C)n2)c1`, the z-score came out at 0.16.

In turn, `Cc1nn(C(C)(C)C)c(OC(=O)c2ccc(Br)o2)c1Sc1ccccc1` gave a z-score of -0.354.

The compound `O=C(Nc1ccccc1)N1CCC(n2c(=O)[nH]c3ccccc32)CC1` gave a z-score of 0.118.

The compound `Cc1cccc(C)c1NC(=O)C1(NC(=O)Cn2cccc([N+](=O)[O-])c2=O)CCCCC1` had a z-score of 0.0735.

The compound `Cc1onc(-c2ccccc2Cl)c1C(=O)NCc1ccccn1` gave a z-score of -0.15.

`COc1ccc(C(=O)Nc2nc3ccccc3c(=O)[nH]2)cc1` had a z-score of 0.346.

On to `OCCNCc1ccc(-c2ccccc2)cc1`, for which the z-score was 0.13.

As for `COc1cc2c(cc1OC)-c1nnc(-c3cccs3)n1C(C)(C)C2`, the z-score was determined as 0.401.

In the case of `CC(=O)NCCc1csc(-c2ccccc2)n1`, the z-score was -0.00683.

Compound `CCc1ccc2c(c1)[C@H]1OCC[C@H]1[C@@H](c1cccs1)N2` yielded a z-score of -0.344.

For `CCC1CCCCN1C(=O)Cn1c(C(=O)OC)cc2sc(Cl)cc21` (centres undefined), the z-score is -0.00236.

`CS(=O)(=O)N(CC(=O)N/N=C/c1cc([N+](=O)[O-])ccc1Cl)c1ccccc1` showed a z-score of -0.095.

Turning to `c1ccc(C2CC3CC(c4ccccc4)N2O3)cc1` (centres undefined), the z-score was -0.18.

Turning to `Cc1cc(C)c2c(n1)nn1c(NCCCN3CCOCC3)cc(C)nc21`, the z-score was 0.0454.

Regarding `CC1CCCN(C(=O)Cn2c(-c3nonc3N)nc3ccccc32)C1` (centres undefined), the z-score was -1.12.

Compound `COc1ccc(NC(=O)/C(=C/c2cccnc2)NC(=O)c2cccs2)cc1` returned a z-score of 0.00768.

`O=C(CSC1=NCCS1)N1CCc2ccccc21` returned a z-score of 0.0931.

The compound `CC(C)(C)CC(=O)Nc1nn[nH]n1` returned a z-score of -0.0556.

The compound `Cc1cc(C(F)(F)F)nn1CC(=O)N1CCCC1` gave a z-score of -0.211.

For `O=C(Nc1nnc(CC(=O)N2CCOCC2)s1)c1cccs1`, the z-score is 0.333.

For `CCN(CC)c1ccc(NC(=O)c2cccnc2)cc1`, the z-score is -0.663.

Compound `O=C(/C=C/c1ccccc1)NC(NC(=S)Nc1cccc(O)c1)C(Cl)(Cl)Cl` (centres undefined) registered a z-score of 2.09.

Consider `COc1ccc(/C=C/C(=O)c2c(O)cc(C)oc2=O)c(OC)c1`, for which the z-score is -0.284.

Take `CC(C)c1ccccc1OCCNS(C)(=O)=O`: the z-score was -0.482.

`CC(C)CN(CC(C)C)C(=S)NC1CCCCC1` came in with a z-score of -0.249.

For `COc1cc(OC)c(OC)cc1CN(C)C(c1ccccc1)c1nnnn1-c1ccccc1C` (centres undefined), the z-score was 0.0196.

Compound `CC1SC(C)C(=O)N(CC(=O)Nc2ccc3c(c2)OCO3)C1=O` (centres undefined) came in with a z-score of -0.17.

In the case of `Nc1ccc(S(=O)(=O)N2CCCC2)cc1`, the z-score was -0.115.

`Cc1c(Cc2ccccc2)sc(NC(=O)c2ccco2)c1C(N)=O` showed a z-score of -1.42.

In turn, `COc1ccc(C(=O)NN(C)c2nc(-c3ccccc3)nnc2C(F)(F)F)cc1` showed a z-score of 0.451.

Turning to `Cc1cc(Nc2ccc(N3CCC(C)CC3)cc2)n2ncnc2n1`, the z-score was -0.195.

Compound `CC1=C(C(=O)N(C)C)C(c2cccs2)NC(=O)N1` (centres undefined) came in with a z-score of 0.0593.

Take `O=C(Cc1ccc(Cl)cc1)N1CCN(C(=O)c2ccco2)CC1`: the z-score was -1.

`O/N=C(/Cc1ccccn1)c1ccccc1` displayed a z-score of -0.199.

`CC1(C)CC(=O)C2=C(C1)OC(N)=C(C#N)C2c1cn(-c2ccccc2)nc1-c1ccccc1` (centres undefined) yielded a z-score of -0.434.

As to `O=C(Nc1nc(=O)c2ccccc2s1)c1ccccc1`, the z-score is active: 14.9.

As to `COc1ccc(C(=O)NNC(=O)CN2CCC(n3nnc4cc(C)ccc43)CC2)cc1`, the z-score was 0.234.

As to `Nc1ccc(CC2SC(=O)NC2=O)cc1` (centres undefined), the z-score was determined as 0.222.

The compound `CCSc1ncnc2c1sc1nc(-c3ccco3)c3c(c12)CC(C)(C)OC3` returned a z-score of -0.162.

In the case of `CCCCCn1c(NCc2ccco2)nc2ccccc21`, the z-score is 0.413.

`O=[N+]([O-])c1ccc(O)c(/C=N/Nc2ccccn2)c1` gave a z-score of -0.118.

For `O=C(Nc1cccc(Br)c1)c1ccn[nH]1`, the z-score was -0.674.

On to `CCCCC(CC)C(=O)NCc1ccc(F)cc1` (centres undefined), for which the z-score is -1.43.

Take `CCOC(=O)CCCCC(=O)c1[nH]c(=O)[nH]c1CSCCO`: the z-score is 0.565.

`CCOC(=O)c1[nH]c2ccccc2c1N=CN(CC)CC` had a z-score of -0.194.

Take `CCC(C)c1ccc(NC(=O)COc2c(F)c(F)c(C(F)(F)F)c(F)c2F)cc1` (centres undefined): the z-score was -0.142.

Compound `COc1ccc(N(CC(=O)Nc2ccc(F)c(Cl)c2)S(=O)(=O)c2c(C)noc2C)cc1` came in with a z-score of -0.0121.

Turning to `CCOC(=O)Nc1ccc(S(=O)(=O)Nc2cc(C)on2)cc1`, the z-score is -0.269.

Compound `O=C(Oc1ccc(Cl)cc1)c1ccc(COC(=O)c2cnccn2)cc1` yielded a z-score of 0.0127.

`CCOC(=O)C(/C(N)=N/C(=O)Nc1ccccc1)=C(\C)O` displayed a z-score of -0.242.

Consider `Cc1ccccc1-n1cnc2cc(NCc3cccs3)ccc21`, for which the z-score is -0.526.

The compound `CCOC(=O)c1c(-c2ccccc2)c(C(C)=O)c(=O)n(C)c1C` returned a z-score of -0.57.

Compound `CC(C)(C)OC(=O)COc1cc(OCC(=O)OC(C)(C)C)c2c(=O)cc(-c3ccccc3)oc2c1` gave a z-score of -0.331.

`O=C(COC(=O)c1cccc(S(=O)(=O)N2CCc3ccccc32)c1)Nc1ccc(Cl)cn1` registered a z-score of -0.0888.

`Brc1ccc(/C=N/N2CCN(C3c4ccccc4-c4ccccc43)CC2)s1` displayed a z-score of -0.108.

Consider `O=c1c2ccccc2sc2ccc(Cl)cc12`, for which the z-score was -0.316.

On to `Cc1ccc(NC(=O)c2cccc(OCc3c(C)noc3C)c2)cc1`, for which the z-score was -1.3.

In turn, `Cc1cc(C)c(S(=O)(=O)NCC2CCC(C(=O)NCc3ccc4c(c3)OCO4)CC2)c(C)c1` (centres undefined) gave a z-score of -0.0319.

`COc1ccc(Oc2nc3ccccc3n(C)c2=O)cc1` showed a z-score of -0.0152.

Take `Cc1cccc(OCC(O)CNC(=O)c2ccccc2C(=O)O)c1` (centres undefined): the z-score was -0.291.

In the case of `COC(=O)NC1(C(F)(F)F)C(=O)NC(C)=C1C(=O)OC` (centres undefined), the z-score is 0.302.

Turning to `CCN(CC)S(=O)(=O)c1ccc2oc(C(=O)NCCCN3CCOCC3)c(C)c2c1`, the z-score is -0.251.

As for `O=C(NCCc1ccc2c(c1)OCCO2)c1cc(F)cc(F)c1`, the z-score worked out at 0.0341.

With `CC(=O)c1ccccc1NS(=O)(=O)c1c(C)nn(-c2ccccc2)c1C`, the z-score was -0.405.

`O=C(CN1CC(=O)Oc2ccccc21)OCC(=O)c1ccc(Br)cc1` gave a z-score of -0.236.

In turn, `COCCn1c(SCC(=O)Nc2cccc(OC)c2)nnc1-c1ccc(Cl)cc1` returned a z-score of -0.443.
